Measurements taken from patent US8715948.

Molecular target: fibrillin-1 (UniProt P35555)
Sequence of UniProt P35555 (P35555 whole entry, looked up): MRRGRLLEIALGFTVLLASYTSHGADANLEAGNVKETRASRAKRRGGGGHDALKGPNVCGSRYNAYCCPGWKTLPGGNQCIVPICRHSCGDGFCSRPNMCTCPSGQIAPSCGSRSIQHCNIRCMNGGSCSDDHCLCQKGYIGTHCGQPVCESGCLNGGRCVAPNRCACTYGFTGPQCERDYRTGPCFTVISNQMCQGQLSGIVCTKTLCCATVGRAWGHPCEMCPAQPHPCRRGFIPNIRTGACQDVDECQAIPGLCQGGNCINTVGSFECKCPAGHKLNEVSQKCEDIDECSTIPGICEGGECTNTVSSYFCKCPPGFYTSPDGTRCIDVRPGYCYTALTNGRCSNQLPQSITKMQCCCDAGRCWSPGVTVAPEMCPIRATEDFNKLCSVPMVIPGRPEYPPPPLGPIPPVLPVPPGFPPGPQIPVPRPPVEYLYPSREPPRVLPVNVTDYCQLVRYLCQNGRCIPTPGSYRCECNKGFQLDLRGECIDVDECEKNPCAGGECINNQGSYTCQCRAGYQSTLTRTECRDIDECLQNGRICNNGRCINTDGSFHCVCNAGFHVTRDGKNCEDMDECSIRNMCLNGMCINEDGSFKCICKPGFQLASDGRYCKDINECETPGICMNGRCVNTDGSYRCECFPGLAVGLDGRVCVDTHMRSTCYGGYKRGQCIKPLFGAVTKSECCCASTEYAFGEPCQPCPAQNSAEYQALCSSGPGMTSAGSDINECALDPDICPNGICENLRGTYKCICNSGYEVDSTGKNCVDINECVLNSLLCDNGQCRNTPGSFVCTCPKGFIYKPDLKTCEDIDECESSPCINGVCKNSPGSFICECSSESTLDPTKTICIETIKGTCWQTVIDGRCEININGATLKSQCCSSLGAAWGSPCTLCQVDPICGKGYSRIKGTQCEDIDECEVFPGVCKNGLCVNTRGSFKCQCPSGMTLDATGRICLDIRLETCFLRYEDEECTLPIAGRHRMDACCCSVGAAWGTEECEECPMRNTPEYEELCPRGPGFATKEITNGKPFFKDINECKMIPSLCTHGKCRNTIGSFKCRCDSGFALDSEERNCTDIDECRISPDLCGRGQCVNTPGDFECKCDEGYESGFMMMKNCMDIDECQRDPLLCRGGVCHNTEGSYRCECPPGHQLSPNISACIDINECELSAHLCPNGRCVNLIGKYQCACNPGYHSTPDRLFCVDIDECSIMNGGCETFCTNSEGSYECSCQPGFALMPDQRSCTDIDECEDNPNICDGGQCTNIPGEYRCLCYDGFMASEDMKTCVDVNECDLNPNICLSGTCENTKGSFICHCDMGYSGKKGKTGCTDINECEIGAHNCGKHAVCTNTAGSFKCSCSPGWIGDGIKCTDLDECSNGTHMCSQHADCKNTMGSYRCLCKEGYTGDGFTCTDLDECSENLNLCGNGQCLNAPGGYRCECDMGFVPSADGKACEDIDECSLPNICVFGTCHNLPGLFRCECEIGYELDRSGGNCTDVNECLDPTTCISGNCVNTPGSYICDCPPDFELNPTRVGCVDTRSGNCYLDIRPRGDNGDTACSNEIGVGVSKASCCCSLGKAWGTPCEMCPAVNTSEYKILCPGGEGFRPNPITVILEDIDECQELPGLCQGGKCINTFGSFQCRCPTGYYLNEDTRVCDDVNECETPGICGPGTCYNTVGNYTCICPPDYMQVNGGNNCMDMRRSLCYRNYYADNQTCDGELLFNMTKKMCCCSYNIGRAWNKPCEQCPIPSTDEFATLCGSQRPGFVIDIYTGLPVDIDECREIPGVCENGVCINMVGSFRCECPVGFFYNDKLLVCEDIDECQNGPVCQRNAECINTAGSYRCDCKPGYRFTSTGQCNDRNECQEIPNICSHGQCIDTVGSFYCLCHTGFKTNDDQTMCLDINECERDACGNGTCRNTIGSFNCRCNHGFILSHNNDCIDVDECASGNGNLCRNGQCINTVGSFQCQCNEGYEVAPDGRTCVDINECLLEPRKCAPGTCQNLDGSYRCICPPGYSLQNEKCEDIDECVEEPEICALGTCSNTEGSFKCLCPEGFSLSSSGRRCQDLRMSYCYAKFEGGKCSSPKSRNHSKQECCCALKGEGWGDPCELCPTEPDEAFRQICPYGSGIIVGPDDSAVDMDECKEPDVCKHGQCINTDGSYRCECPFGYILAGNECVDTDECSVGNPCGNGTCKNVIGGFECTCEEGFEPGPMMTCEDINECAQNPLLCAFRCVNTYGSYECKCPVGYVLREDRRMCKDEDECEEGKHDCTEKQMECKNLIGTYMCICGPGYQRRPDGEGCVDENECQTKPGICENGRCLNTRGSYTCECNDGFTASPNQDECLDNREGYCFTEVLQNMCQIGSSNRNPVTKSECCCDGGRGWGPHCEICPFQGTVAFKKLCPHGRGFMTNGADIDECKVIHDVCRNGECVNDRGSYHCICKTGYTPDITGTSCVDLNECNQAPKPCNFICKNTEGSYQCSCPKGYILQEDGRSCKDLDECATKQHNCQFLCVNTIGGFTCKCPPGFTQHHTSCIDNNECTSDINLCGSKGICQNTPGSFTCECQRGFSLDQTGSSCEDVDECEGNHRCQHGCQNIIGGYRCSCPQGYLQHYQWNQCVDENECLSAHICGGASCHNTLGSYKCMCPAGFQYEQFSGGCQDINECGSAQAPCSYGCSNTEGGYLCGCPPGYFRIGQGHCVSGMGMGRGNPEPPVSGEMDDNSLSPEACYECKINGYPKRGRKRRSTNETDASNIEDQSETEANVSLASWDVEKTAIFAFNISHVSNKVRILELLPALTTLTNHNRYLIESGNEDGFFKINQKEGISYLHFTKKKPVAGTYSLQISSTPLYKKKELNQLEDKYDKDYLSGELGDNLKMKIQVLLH

Granzyme B (letters omitted)
cleavage fragments, fibrillin-1 Western blot of supernatant and ECM: showed fibrillin-1 cleavage fragments in the GrB supernatant, GrB ECM
